# By IC50 is meant the dose at which the fit gives 50% viability; where the fit passes the top or lowest dose, that dose stands as a limit. For AUC the same curve is integrated over the 256-fold range of doses and scaled to a fraction; the more sensitive the line, the further below 1. For part of these data: An inferred top dose comes from the curve model; the source does not state it.
# Columns and labels:
# Assay in all cases: Viability of human cancer cell lines after 72 h of drug (GDSC screen)
# ABT-263 = compound: CC1(C)CCC(c2ccc(Cl)cc2)=C(CN2CCN(c3ccc(C(=O)NS(=O)(=O)c4ccc(N[C@H](CCN5CCOCC5)CSc5ccccc5)c(S(=O)(=O)C(F)(F)F)c4)cc3)CC2)C1 [ABT-263]; conditions: top dose 2 µM; top dose inferred
# Protocol: (§1)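 Human cancer cell lines in 384-well plates, medium with 10% serum, drug for 72 h over a 256-fold dose range (nine 2-fold or five 4-fold steps up to the top dose). Adherent lines were fixed and stained with the nucleic acid dye Syto60, suspension lines read with resazurin; signal relative to control wells, capped at 0 and 100%. One two-parameter sigmoid per drug and line, fitted in a mixed model over all curves with the slope shared within a line.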
# GW843682X = compound: COc1cc2ncn(-c3cc(OCc4ccccc4C(F)(F)F)c(C(N)=O)s3)c2cc1OC [GW843682X]; conditions: top dose 0.256 µM
# Protocol: as §1
# GW 441756 = compound: Cn1cc(/C=C2\C(=O)Nc3cccnc32)c2ccccc21 [GW 441756]; conditions: top dose 2 µM; top dose inferred
# Protocol: as §1
# PIK-93 = compound: CC(=O)Nc1nc(C)c(-c2ccc(Cl)c(S(=O)(=O)NCCO)c2)s1 [PIK-93]; conditions: top dose 20 µM
# Protocol: as §1
# piperlongumine = compound: COc1cc(/C=C/C(=O)N2CCC=CC2=O)cc(OC)c1OC [piperlongumine]; conditions: top dose 10 µM
# Protocol: as §1
# Salubrinal = compound: O=C(/C=C/c1ccccc1)NC(NC(=S)Nc1cccc2cccnc12)C(Cl)(Cl)Cl [Salubrinal]; conditions: top dose 16 µM; top dose inferred
# Protocol: as §1
Cell Line,AUC (ABT-263),IC50 (ABT-263),AUC (GW843682X),IC50 (GW843682X),AUC (GW 441756),IC50 (GW 441756),AUC (PIK-93),IC50 (PIK-93),AUC (piperlongumine),IC50 (piperlongumine),AUC (Salubrinal),IC50 (Salubrinal)
"GB-1 (glioma, adherent)",0.95,> 2000 nM,0.561,24.2 nM,0.97,> 2000 nM,0.62,2840 nM,0.698,2510 nM,0.981,> 16000 nM
"LU-139 (small cell lung carcinoma, suspension)",0.582,223 nM,0.648,46.3 nM,0.982,> 2000 nM,0.685,4790 nM,0.776,5150 nM,0.869,> 16000 nM
"A388 (skin, adherent)",0.678,426 nM,0.482,14.1 nM,0.958,> 2000 nM,0.825,14400 nM,0.764,4140 nM,0.93,> 16000 nM
"NCI-H1876 (small cell lung carcinoma, adherent)",0.599,235 nM,0.474,13.5 nM,0.987,> 2000 nM,0.85,15400 nM,0.804,5090 nM,0.967,> 16000 nM
"MN-60 (B-cell leukaemia, suspension)",0.988,> 2000 nM,0.963,> 256 nM,0.985,> 2000 nM,0.8,10100 nM,0.89,> 10000 nM,0.988,> 16000 nM
"TK10 (kidney, adherent)",0.948,> 2000 nM,0.717,75.7 nM,0.962,> 2000 nM,0.879,> 20000 nM,0.741,3590 nM,0.943,> 16000 nM
"LB771-HNC (head and neck, adherent)",0.978,> 2000 nM,0.709,72.9 nM,0.897,> 2000 nM,0.847,> 20000 nM,0.848,> 10000 nM,0.905,> 16000 nM
"NCI-H526 (small cell lung carcinoma, suspension)",0.706,460 nM,0.581,26.5 nM,0.99,> 2000 nM,0.772,7390 nM,0.919,> 10000 nM,0.986,> 16000 nM
"NCI-H747 (large intestine, adherent)",0.982,> 2000 nM,0.689,61.6 nM,0.982,> 2000 nM,0.757,8290 nM,0.832,8430 nM,0.966,> 16000 nM
"NCI-H345 (small cell lung carcinoma, suspension)",0.641,314 nM,0.848,206 nM,0.99,> 2000 nM,0.986,> 20000 nM,0.956,> 10000 nM,0.972,> 16000 nM
"NCI-H2135 (non-small cell lung carcinoma, adherent)",0.966,> 2000 nM,0.889,> 256 nM,0.989,> 2000 nM,0.739,5880 nM,0.99,> 10000 nM,0.951,> 16000 nM
"KNS-42 (glioma, adherent)",0.952,> 2000 nM,0.589,29.4 nM,0.984,> 2000 nM,0.877,> 20000 nM,0.792,5510 nM,0.905,> 16000 nM
"SNB75 (glioma, adherent)",0.973,> 2000 nM,0.704,79.3 nM,0.967,> 2000 nM,0.917,> 20000 nM,0.788,6820 nM,0.947,> 16000 nM
"GRANTA-519 (B-cell lymphoma, suspension)",0.666,344 nM,0.688,50.5 nM,0.583,205 nM,0.891,19100 nM,0.826,5260 nM,0.967,> 16000 nM
"NCI-H69 (small cell lung carcinoma, suspension)",0.578,209 nM,0.714,69.5 nM,0.985,> 2000 nM,0.967,> 20000 nM,0.827,7100 nM,0.901,> 16000 nM
"TUR (B-cell lymphoma, suspension)",0.982,> 2000 nM,0.984,> 256 nM,0.988,> 2000 nM,0.513,1350 nM,0.667,1750 nM,0.987,> 16000 nM
"SR (lymphoid neoplasm, suspension)",0.575,196 nM,0.411,9.36 nM,0.985,> 2000 nM,0.303,374 nM,0.746,2910 nM,0.929,> 16000 nM
"Becker (glioma, adherent)",0.965,> 2000 nM,0.602,31.7 nM,0.984,> 2000 nM,0.842,16700 nM,0.635,1550 nM,0.768,6700 nM
"L-363 (myeloma, suspension)",0.975,> 2000 nM,0.627,34.1 nM,0.981,> 2000 nM,0.703,4240 nM,0.698,2060 nM,0.867,11300 nM
"RPMI-8226 (myeloma, suspension)",0.5,125 nM,0.592,27.5 nM,0.975,> 2000 nM,0.711,4500 nM,0.72,2370 nM,0.86,10700 nM
"NALM-6 (B-cell leukaemia, suspension)",0.515,136 nM,0.501,16.1 nM,0.991,> 2000 nM,0.156,142 nM,0.835,5130 nM,0.864,10400 nM
"RPMI-6666 (Hodgkin lymphoma, suspension)",0.453,90.9 nM,0.637,41.5 nM,0.982,> 2000 nM,0.302,306 nM,0.784,5180 nM,0.932,> 16000 nM

Cell Line,AUC (ABT-263),IC50 (ABT-263),AUC (GW843682X),IC50 (GW843682X),AUC (GW 441756),IC50 (GW 441756),AUC (PIK-93),IC50 (PIK-93),AUC (piperlongumine),IC50 (piperlongumine),AUC (Salubrinal),IC50 (Salubrinal)
"RXF393 (kidney, adherent)",0.829,1970 nM,0.682,63.4 nM,0.926,> 2000 nM,0.717,6660 nM,0.669,2220 nM,0.874,> 16000 nM
"ME-1 (acute myeloid leukaemia, suspension)",0.413,71.1 nM,0.881,> 256 nM,0.989,> 2000 nM,0.896,> 20000 nM,0.845,8030 nM,0.969,> 16000 nM
"WSU-NHL (lymphoid neoplasm, suspension)",0.87,1490 nM,0.99,> 256 nM,0.977,> 2000 nM,0.641,2900 nM,0.788,3820 nM,0.989,> 16000 nM
"EW-13 (Ewing sarcoma, suspension)",0.729,609 nM,0.969,> 256 nM,0.964,> 2000 nM,0.526,1480 nM,0.977,> 10000 nM,0.97,> 16000 nM
"Calu-6 (lung adenocarcinoma, adherent)",0.87,> 2000 nM,0.59,29.3 nM,0.983,> 2000 nM,0.848,18200 nM,0.78,4760 nM,0.875,> 16000 nM
"LB1047-RCC (kidney, adherent)",0.919,> 2000 nM,0.65,44.1 nM,0.859,2000 nM,0.806,11700 nM,0.774,4420 nM,0.937,> 16000 nM
"KARPAS-45 (lymphoblastic leukaemia, suspension)",0.435,85.6 nM,0.293,4.69 nM,0.986,> 2000 nM,0.234,251 nM,0.939,> 10000 nM,0.917,> 16000 nM
"ES6 (Ewing sarcoma, adherent)",0.973,> 2000 nM,0.388,7.28 nM,0.961,> 2000 nM,0.67,4190 nM,0.805,6550 nM,0.903,> 16000 nM
"LB2518-MEL (melanoma, adherent)",0.939,> 2000 nM,0.684,54 nM,0.987,> 2000 nM,0.925,> 20000 nM,0.894,> 10000 nM,0.795,7850 nM
"D-502MG (glioma, adherent)",0.965,> 2000 nM,0.964,> 256 nM,0.957,> 2000 nM,0.746,9660 nM,0.74,4560 nM,0.851,> 16000 nM
"GT3TKB (stomach, adherent)",0.981,> 2000 nM,0.405,9.09 nM,0.99,> 2000 nM,0.962,> 20000 nM,0.568,939 nM,0.917,> 16000 nM
"NCI-H2141 (small cell lung carcinoma, suspension)",0.772,752 nM,0.783,105 nM,0.989,> 2000 nM,0.969,> 20000 nM,0.824,5730 nM,0.953,> 16000 nM
"IMR-5 (neuroblastoma, adherent)",0.9,1840 nM,0.54,20.2 nM,0.991,> 2000 nM,0.821,9270 nM,0.811,4290 nM,0.866,10700 nM
"NOS-1 (osteosarcoma, adherent)",0.879,> 2000 nM,0.497,15.7 nM,0.943,> 2000 nM,0.694,5010 nM,0.813,7030 nM,0.801,10000 nM
"WIL2-NS (lymphoid neoplasm, suspension)",0.99,> 2000 nM,0.641,36.2 nM,0.992,> 2000 nM,0.689,3760 nM,0.82,4410 nM,0.82,7050 nM
"SK-LMS-1 (soft tissue, adherent)",0.942,> 2000 nM,0.605,30.6 nM,0.909,> 2000 nM,0.796,8840 nM,0.622,1330 nM,0.911,> 16000 nM
"Daudi (Burkitt lymphoma, suspension)",0.974,> 2000 nM,0.625,33.7 nM,0.991,> 2000 nM,0.853,12600 nM,0.822,4890 nM,0.781,5760 nM
"OS-RC-2 (kidney, adherent)",0.876,> 2000 nM,0.772,147 nM,0.891,> 2000 nM,0.767,10900 nM,0.661,2160 nM,0.909,> 16000 nM
"COLO-684 (endometrium, suspension)",0.977,> 2000 nM,0.668,50 nM,0.984,> 2000 nM,0.703,5030 nM,0.79,5050 nM,0.913,> 16000 nM
"AM-38 (glioma, semi-adherent)",0.84,1420 nM,0.988,> 256 nM,0.973,> 2000 nM,0.812,11000 nM,0.822,5980 nM,0.964,> 16000 nM
"D-263MG (glioma, adherent)",0.971,> 2000 nM,0.915,> 256 nM,0.983,> 2000 nM,0.938,> 20000 nM,0.735,3430 nM,0.933,> 16000 nM

# Reference: the supplement of paper PMC4967469
